From the supplement of paper PMC9446081
About 220 (0.56%) of roughly 39,000 compounds showed activity. The list shows a part of the results.

tested on: Escherichia coli K-12 BW25113; experiment: relative growth (OD600 normalised to plate interquartile mean) (fraction); higher = less growth inhibition, active = 0.2 or less; conditions: 50 µM; LB; incubation time: overnight (16-24 h)
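Note: static incubation at 37 °C against the wild-type strain, values averaged over two biological replicates.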

Compound | relative growth
CC(C)NC(=O)Nc1cccc2c1O[C@@H](CN(C)Cc1ccc(C(=O)O)cc1)[C@@H](C)CN([C@H](C)CO)C2=O | inactive: 0.991
C[C@H](CO)N1C[C@H](C)[C@H](CN(C)S(=O)(=O)c2cccs2)OCCCC[C@H](C)Oc2ccc(NC(=O)C3CCCCC3)cc2C1=O | inactive: 1.03
O=C(O)CCCCC1CCSS1 (configuration not stated) | inactive: 1.11
Cc1cc(Cn2c(=O)n(Cc3cnc(C)s3)c(=O)c3cc(S(=O)(=O)NC4(C)CC4)ccc32)n(C)n1 | inactive: 0.999
CC(=O)/N=c1\sc(S(N)(=O)=O)nn1C | inactive: 1.01
COc1cccc(-c2ccc([C@@H](Oc3cc(-c4ccc(C[C@H](N)C(=O)O)cc4)nc(N)n3)C(F)(F)F)cc2)c1 | inactive: 0.869
C[C@H](CO)N1C[C@H](C)[C@@H](CN(C)C(=O)Cc2ccccc2)Oc2ncc(C#CC3(O)CCCC3)cc2C1=O | inactive: 0.965
C[C@@H]1CCCCO[C@H](CN(C)C(=O)Nc2ccc(C(F)(F)F)cc2)[C@@H](C)CN([C@H](C)CO)C(=O)c2cc(NC(=O)C3CCCCC3)ccc2O1 | inactive: 1.02
Cc1ccc(S(=O)(=O)N(C)C[C@@H]2Oc3ncc(C#CC(C)(C)O)cc3C(=O)N([C@H](C)CO)C[C@@H]2C)cc1 | inactive: 1.02
COCC#Cc1cnc2c(c1)C(=O)N([C@@H](C)CO)C[C@H](C)[C@H](CN(C)C(=O)Nc1ccc(OC)cc1)O2 | inactive: 0.994
C[C@@H]1CCCCO[C@@H](CN(C)Cc2ccc(Cl)c(Cl)c2)[C@H](C)CN([C@@H](C)CO)C(=O)c2cc(NS(=O)(=O)c3cccs3)ccc2O1 | inactive: 1.02
CCN(CC)S(=O)(=O)c1ccc(C(=O)O)cc1 | inactive: 1.05
C[C@H](CO)N1C[C@H](C)[C@H](CN(C)Cc2ccc(C(=O)Nc3ccccc3N)cc2)Oc2ccc(NC(=O)C3CCCCC3)cc2C1=O | inactive: 0.994
COCC(=O)Nc1ccc2c(c1)OC[C@H](C)N(Cc1cccc(F)c1)C[C@@H](C)[C@@H](OC)CN(C)C2=O | inactive: 1.02
CC(C)NC(=O)N(C)C[C@@H]1Oc2ccc(NS(=O)(=O)c3ccc(F)cc3)cc2CC(=O)N([C@@H](C)CO)C[C@@H]1C | inactive: 1.01
COc1ccc(S(=O)(=O)N(C)C[C@@H]2Oc3ccc(NS(=O)(=O)c4ccc(F)cc4)cc3C(=O)N([C@@H](C)CO)C[C@H]2C)cc1 | inactive: 1.02
C[C@@H]1CN([C@H](C)CO)C(=O)Cc2cc(NC(=O)CCC(F)(F)F)ccc2O[C@@H]1CN(C)Cc1ccc(Oc2ccccc2)cc1 | inactive: 1
